# Source: the supplement of paper PMC8728848
# The other results are listed elsewhere or left out.
# B1: TREM-2 (Mus musculus), Q99NH8 (protein)
# chain: MGPLHQFLLLLITALSQALNTTVLQGMAGQSLRVSCTYDALKHWGRRKAWCRQLGEEGPCQRVVSTHGVWLLAFLKKRNGSTVIADDTLAGTVTITLKNLQAGDAGLYQCQSLRGREAEVLQKVLVEVLEDPLDDQDAGDLWVPEESSSFEGAQVEHSTSRNQETSFPPTSILLLLACVLLSKFLAASILWAVARGRQKPGTPVVRGLDCGQDAGHQLQILTGPGGT
# Columns and labels:
# Test in all cases: glycan array binding signal (z-score within array); higher = stronger binding
# Settings in all cases: glycan notation: IUPAC condensed, linker removed
# [1] = biological target: Man(a1-3)[Man(a1-6)]Man(a1-6)[Man(a1-2)Man(a1-3)]Man(b1-4)GlcNAc(b1-4)GlcNAc
# Outline: (§1)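 From the Consortium for Functional Glycomics database, 3228 arrays were curated, keeping only those whose protein sequence was available. Binding is given as a within-array Z-score averaged across arrays sharing a protein sequence and across linkers. Negative Z-scores can be read as non-binding.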
# [2] = biological target: Man(a1-3)[Man(a1-6)]Man(a1-6)[Man(a1-3)]Man(b1-4)GlcNAc(b1-4)GlcNAc
# Outline: as §1
# [3] = biological target: Man(a1-3)[Man(a1-6)]Man(b1-4)GlcNAc(b1-4)GlcNAc
# Outline: as §1
# Man(b1-4)GlcNAc = biological target: Man(b1-4)GlcNAc
# Outline: as §1
# Neu5Ac(a2-3)Gal = biological target: Neu5Ac(a2-3)Gal
# Outline: as §1
# [4] = biological target: Neu5Ac(a2-3)Gal(b1-3)GalNAc
# Outline: as §1
# [5] = biological target: Neu5Ac(a2-3)Gal(b1-3)GalNAc(b1-3)Gal(a1-4)Gal(b1-4)Glc
# Outline: as §1
# [6] = biological target: Neu5Ac(a2-3)Gal(b1-3)GalNAc(b1-3)Gal(b1-4)GlcNAc
# Outline: as §1
# [7] = biological target: Neu5Ac(a2-3)Gal(b1-3)GalNAc(b1-4)[Neu5Ac(a2-3)]Gal(b1-4)Glc
# Outline: as §1
# [8] = biological target: Neu5Ac(a2-3)Gal(b1-3)GalNAc6S
# Outline: as §1
# [9] = biological target: Neu5Ac(a2-3)Gal(b1-3)GlcNAc
# Outline: as §1
# [10] = biological target: Neu5Ac(a2-3)Gal(b1-3)GlcNAc6S
# Outline: as §1
# [11] = biological target: Neu5Ac(a2-3)Gal(b1-3)[Fuc(a1-4)]GlcNAc
# Outline: as §1
# [12] = biological target: Neu5Ac(a2-3)Gal(b1-3)[Fuc(a1-4)]GlcNAc(b1-3)Gal(b1-4)[Fuc(a1-3)]GlcNAc
# Outline: as §1
# [13] = biological target: Neu5Ac(a2-3)Gal(b1-3)[Neu5Ac(a2-3)Gal(b1-4)]GlcNAc
# Outline: as §1
# [14] = biological target: Neu5Ac(a2-3)Gal(b1-3)[Neu5Ac(a2-6)]GalNAc
# Outline: as §1
# Neu5Ac(a2-3)Gal(b1-4)Glc = biological target: Neu5Ac(a2-3)Gal(b1-4)Glc
# Outline: as §1
# [15] = biological target: Neu5Ac(a2-3)Gal(b1-4)GlcNAc
# Outline: as §1
# [16] = biological target: Neu5Ac(a2-3)Gal(b1-4)GlcNAc(b1-2)Man(a1-3)[Neu5Ac(a2-3)Gal(b1-4)GlcNAc(b1-2)Man(a1-6)]Man(b1-4)GlcNAc(b1-4)GlcNAc
# Outline: as §1
# [17] = biological target: Neu5Ac(a2-3)Gal(b1-4)GlcNAc(b1-3)Gal(b1-4)GlcNAc
# Outline: as §1
# [18] = biological target: Neu5Ac(a2-3)Gal(b1-4)GlcNAc(b1-3)Gal(b1-4)GlcNAc(b1-3)Gal(b1-4)GlcNAc
# Outline: as §1
# [19] = biological target: Neu5Ac(a2-3)Gal(b1-4)GlcNAc(b1-3)Gal(b1-4)[Fuc(a1-3)]GlcNAc
# Outline: as §1
# [20] = biological target: Neu5Ac(a2-3)Gal(b1-4)GlcNAc6S
# Outline: as §1
# [21] = biological target: Neu5Ac(a2-3)Gal(b1-4)[Fuc(a1-3)]GlcNAc
# Outline: as §1
# [22] = biological target: Neu5Ac(a2-3)Gal(b1-4)[Fuc(a1-3)]GlcNAc(b1-3)Gal
# Outline: as §1
# [23] = biological target: Neu5Ac(a2-3)Gal(b1-4)[Fuc(a1-3)]GlcNAc(b1-3)Gal(b1-4)GlcNAc
# Outline: as §1
# [24] = biological target: Neu5Ac(a2-3)Gal(b1-4)[Fuc(a1-3)]GlcNAc(b1-3)Gal(b1-4)[Fuc(a1-3)]GlcNAc(b1-3)Gal(b1-4)[Fuc(a1-3)]GlcNAc
# Outline: as §1
# [25] = biological target: Neu5Ac(a2-3)Gal(b1-4)[Fuc(a1-3)]GlcNAc6S
# Outline: as §1
# [26] = biological target: Neu5Ac(a2-3)Gal6S(b1-4)GlcNAc
# Outline: as §1
# [27] = biological target: Neu5Ac(a2-3)Gal6S(b1-4)[Fuc(a1-3)]GlcNAc
# Outline: as §1
# Neu5Ac(a2-3)GalNAc = biological target: Neu5Ac(a2-3)GalNAc
# Outline: as §1
# [28] = biological target: Neu5Ac(a2-3)GalNAc(b1-4)GlcNAc
# Outline: as §1
# [29] = biological target: Neu5Ac(a2-3)[GalNAc(b1-4)]Gal(b1-4)Glc
# Outline: as §1
# [30] = biological target: Neu5Ac(a2-3)[GalNAc(b1-4)]Gal(b1-4)GlcNAc
# Outline: as §1
# [31] = biological target: Neu5Ac(a2-3)[Neu5Ac(a2-6)]GalNAc
# Outline: as §1
# Neu5Ac(a2-6)Gal = biological target: Neu5Ac(a2-6)Gal
# Outline: as §1
# Neu5Ac(a2-6)Gal(b1-4)Glc = biological target: Neu5Ac(a2-6)Gal(b1-4)Glc
# Outline: as §1
# [32] = biological target: Neu5Ac(a2-6)Gal(b1-4)GlcNAc
# Outline: as §1
# [33] = biological target: Neu5Ac(a2-6)Gal(b1-4)GlcNAc(b1-3)Gal(b1-4)GlcNAc
# Outline: as §1
# [34] = biological target: Neu5Ac(a2-6)Gal(b1-4)GlcNAc(b1-3)Gal(b1-4)[Fuc(a1-3)]GlcNAc(b1-3)Gal(b1-4)[Fuc(a1-3)]GlcNAc
# Outline: as §1
# [35] = biological target: Neu5Ac(a2-6)Gal(b1-4)GlcNAc6S
# Outline: as §1
# Neu5Ac(a2-6)GalNAc = biological target: Neu5Ac(a2-6)GalNAc
# Outline: as §1
# [36] = biological target: Neu5Ac(a2-6)GalNAc(b1-4)GlcNAc
# Outline: as §1
# Neu5Ac(a2-8)Neu5Ac = biological target: Neu5Ac(a2-8)Neu5Ac
# Outline: as §1
# [37] = biological target: Neu5Ac(a2-8)Neu5Ac(a2-3)Gal(b1-4)Glc
# Outline: as §1
binder,measurement,setting,value
B1,glycan array binding signal (z-score),[1],-0.168
same,glycan array binding signal (z-score),[2],-0.131
same,glycan array binding signal (z-score),[3],-0.261
same,glycan array binding signal (z-score),Man(b1-4)GlcNAc,-0.217
same,glycan array binding signal (z-score),Neu5Ac(a2-3)Gal,-0.303
same,glycan array binding signal (z-score),[4],-0.209
same,glycan array binding signal (z-score),[5],-0.359
same,glycan array binding signal (z-score),[6],-0.209
same,glycan array binding signal (z-score),[7],-0.368
same,glycan array binding signal (z-score),[8],0.919
same,glycan array binding signal (z-score),[9],-0.319
same,glycan array binding signal (z-score),[10],-0.078
same,glycan array binding signal (z-score),[11],-0.351
same,glycan array binding signal (z-score),[12],0.087
same,glycan array binding signal (z-score),[13],-0.316
same,glycan array binding signal (z-score),[14],-0.233
same,glycan array binding signal (z-score),Neu5Ac(a2-3)Gal(b1-4)Glc,0.131
same,glycan array binding signal (z-score),[15],-0.391
same,glycan array binding signal (z-score),[16],-0.327
same,glycan array binding signal (z-score),[17],-0.376
same,glycan array binding signal (z-score),[18],-0.297
same,glycan array binding signal (z-score),[19],-0.312
same,glycan array binding signal (z-score),[20],1.52
same,glycan array binding signal (z-score),[21],-0.217
same,glycan array binding signal (z-score),[22],-0.393
same,glycan array binding signal (z-score),[23],-0.043
same,glycan array binding signal (z-score),[24],-0.235
same,glycan array binding signal (z-score),[25],0.259
same,glycan array binding signal (z-score),[26],0.56
same,glycan array binding signal (z-score),[27],0.844
same,glycan array binding signal (z-score),Neu5Ac(a2-3)GalNAc,-0.038
same,glycan array binding signal (z-score),[28],-0.226
same,glycan array binding signal (z-score),[29],-0.373
same,glycan array binding signal (z-score),[30],-0.273
same,glycan array binding signal (z-score),[31],0.289
same,glycan array binding signal (z-score),Neu5Ac(a2-6)Gal,-0.353
same,glycan array binding signal (z-score),Neu5Ac(a2-6)Gal(b1-4)Glc,-0.292
same,glycan array binding signal (z-score),[32],-0.332
same,glycan array binding signal (z-score),[33],-0.403
same,glycan array binding signal (z-score),[34],-0.319
same,glycan array binding signal (z-score),[35],1.03
same,glycan array binding signal (z-score),Neu5Ac(a2-6)GalNAc,-0.359
same,glycan array binding signal (z-score),[36],-0.226
same,glycan array binding signal (z-score),Neu5Ac(a2-8)Neu5Ac,-0.304
same,glycan array binding signal (z-score),[37],-0.183
